According to PubChem BioAssay AID2107 (National Center for Advancing Translational Sciences (NCATS), 2009):
Among all 240,000 compounds or so, about 20 (0.008%) were called active. This list was built around the results that the source calls inconclusive (neither active nor inactive); the mix of calls is not that of the screen. Calls come from the whole dose curve; as a rule, active = well fitted inhibition curve with a large enough effect; inconclusive = small, poorly fitted or top-dose-only effect, or effect the other way; inactive = flat fitted curve, though single readings scatter. Potencies of inconclusive entries are left out as doubtful fits.

Target: Alpha-galactosidase A (Homo sapiens) (UniProt P06280)
Experiment: qHTS Assay for Inhibitors and Activators of Human alpha-Galactosidase From Spleen Homogenate
Details: 4MU-alpha-Gal fluorescence, 40 min; series mostly up to 80 µM
Outline: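 Human spleen homogenate (1 ug) was the enzyme source, with 4-methylumbelliferyl-alpha-D-galactopyranoside (1 mM final) in pH 5.0 citrate buffer with 0.01% Tween-20. Compounds were titrated; after 40 min at 37C, NaOH/glycine stop, 4-MU fluorescence read; AC50 from Hill fits.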
Potency is the fitted concentration of half-maximal effect; tags give direction and shape of the fitted curve.

Chain of UniProt P06280 (P06280 whole entry, looked up): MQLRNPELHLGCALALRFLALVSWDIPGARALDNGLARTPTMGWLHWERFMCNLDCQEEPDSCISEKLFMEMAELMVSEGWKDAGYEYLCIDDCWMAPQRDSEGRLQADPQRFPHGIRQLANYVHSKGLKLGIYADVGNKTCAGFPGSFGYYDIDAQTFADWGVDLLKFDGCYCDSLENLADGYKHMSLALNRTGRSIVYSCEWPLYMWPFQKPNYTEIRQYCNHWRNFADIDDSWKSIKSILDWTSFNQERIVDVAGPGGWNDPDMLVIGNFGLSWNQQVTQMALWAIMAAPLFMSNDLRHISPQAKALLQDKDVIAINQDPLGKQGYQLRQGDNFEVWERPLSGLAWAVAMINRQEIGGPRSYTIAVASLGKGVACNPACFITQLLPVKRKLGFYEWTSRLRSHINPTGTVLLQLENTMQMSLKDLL

Question: How did the Potency turn out when `Nc1nc2c(c(=O)[nH]1)N=C(CNc1ccc(C(=O)NC(CCC(=O)O)C(=O)O)cc1)CN2` (stereo not drawn) was run?
Answer: inconclusive [activator, partial curve, poor fit]

Question: For `CN(C)c1ccc(-c2nc(N(C)C)c3ccccc3n2)cc1`, which Potency is on record?
Answer: inconclusive [activator, single point]

Question: How did the Potency turn out when `Cc1cccc(NS(=O)(=O)c2cccs2)n1` was run?
Answer: inconclusive [activator, single point]

Question: With `Nc1c(C(=O)NCCN2CCOCC2)c2nc3ccccc3nc2n1CCc1ccccc1` as the molecule, how does the Potency read?
Answer: inconclusive [activator, partial curve]

Question: Which Potency does the source give for `Cc1nc(-c2ccccc2)cn2c1nc1ccccc12` here?
Answer: inconclusive [activator, partial curve]

Question: With `O=C(Cn1c2ccccc2c(=O)c2ccccc21)Nc1cccc(F)c1` as the molecule, how does the Potency read?
Answer: inconclusive [activator, full curve]

Question: How did the Potency turn out when `COc1ccc(C(=O)/C(=C/O)N=Nc2ccc(F)cc2)cc1` was run?
Answer: inactive

Question: For `Cc1c(OC(=O)CNC(=O)OC(C)(C)C)ccc2c3c(c(=O)oc12)CCC3`, which Potency is on record?
Answer: inconclusive [activator, full curve]

Question: `COCCn1c(=O)[nH]c2cc(C(=O)NCCc3ccc(S(N)(=O)=O)cc3)ccc2c1=O` was tested. Which Potency did it give?
Answer: inconclusive [activator, single point]

Question: `COCCN=C1Sc2nc3ccc(C)cc3cc2CN1Cc1cccs1` was tested. Which Potency did it give?
Answer: inactive

Question: With `Cc1onc(-c2ccccc2Cl)c1C(=O)Nc1ccc(-c2cn3cccnc3n2)cc1` as the molecule, how does the Potency read?
Answer: inconclusive [activator, partial curve]

Question: How did the Potency turn out when `COCCn1c(=O)[nH]c2cc(C(=O)NCCCN3CCN(c4ccc(F)cc4)CC3)ccc2c1=O` was run?
Answer: inconclusive [activator, partial curve]

Question: Which Potency does the source give for `COc1cccc(OC)c1-c1cc(C(=O)NC2(C(=O)O)C3CC4CC(C3)CC2C4)nn1-c1ccc(C(=O)N(C)CCCN(C)C)cc1C(C)C` (stereo not drawn) here?
Answer: inactive

Question: How did the Potency turn out when `CCOC(=O)/C(=N\Nc1ccc(OC)cc1)c1csc(Nc2ccccc2)n1` was run?
Answer: inactive

Question: Which Potency does the source give for `O=c1[nH]c(N/N=C/c2ccccc2)nc2ccccc12` here?
Answer: inconclusive [activator, single point]

Question: With `COC(CNC(=O)c1ccc(N2CCc3ccccc32)c([N+](=O)[O-])c1)OC` as the molecule, how does the Potency read?
Answer: inactive

Question: With `CC(C)(C)OC(=O)NCCc1nnc(S(=O)(=O)Cc2ccc(Cl)cc2Cl)o1` as the molecule, how does the Potency read?
Answer: inconclusive [activator, full curve, poor fit]

Question: For `COc1ccc(-c2nc3cnc(N4CCNCC4)nc3n(C3CC3)c2=O)cc1`, which Potency is on record?
Answer: inactive
